Results on 44 sequences are retold here after the supplement of paper PMC11417369.

± gives the standard deviation of the averaged measurements. The list shows a part of the results.

The subject of the test is PfAP2-G AP2 domain (GST-tagged). Put plainly: gcPBM binding intensity (ln(normalized median fluorescence intensity)); higher = stronger DNA binding. A digest of the protocol: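 An Agilent 4 × 180k array carrying primer-extended double-stranded 36-bp intergenic genomic probes and negative controls received GST-tagged P. falciparum DNA-binding domains expressed in E. coli, about 25 μg on average, for 1 h. The binding buffer contained 1× PBS, 1% milk, 0.2 mg/ml BSA, 0.5% salmon testes DNA and 0.03% Triton X-100. Binding intensity is the top Masliner-normalised natural-log median intensity across replicate spots of either probe orientation, read after Alexa488 anti-GST antibody staining and a 488 nm scan.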
For the sequence “AAGGATAATAGGTACACATGCAATATTCATATATAC [TGCATGCA_site523]”, the “gcPBM binding intensity (ln)” value was 11.4 ± 0.93.

In the case of “TCAAAAGAAATAAAAACATGCATAAAAGTAAAAATA [TGCATGCA_site832]”, the “gcPBM binding intensity (ln)” value stood at 9.86 ± 0.16. The value for AAATACTGTACAAAGGTGCATAAAAAGTGGGGCATA was 10.9 ± 0.57; that for “ACGTATATTTTTACATGTACATATGTAAAAAATTTT [XGTACX_site4587]” was 11.3 ± 0.77. For the sequence “TGTTTTTCATAGTGCACACATAACCAAAAATAGTAT [CACACA_site3150]”, the “gcPBM binding intensity (ln)” value is 10.7 ± 0.52. The value for “TTATGATAATTTTGCACACACTTAGGAAAAATTATG [CACACA_site4949]” was 10.3 ± 0.33; that for “AAATAATATATATACACACACACATATATATATACA [CACACA_site554]” was 10.03 ± 0.028; that for “GAATGTTTATTATATGCATGTTATATATATGAATAT [TGCATGCA_site4]” was 9.685 ± 0.049. For the sequence “CCTTTCCTTTTATAAGTGCATATAACAAATGTATAC [GTGCAC_site9872]”, the “gcPBM binding intensity (ln)” value came out at 10.3 ± 0.24. In the case of “TTTTATTTATCATACACACACAGAAAAAAAAAAAAA [CACACA_site158]” it was 9.94 ± 0.52. The value for “AATAATGAAAAATCAAATAACCTAAATTACAACTGT [XGTACX_negctrl_site65]” was 9.875 ± 0.078.

For “AAAAATAAAAAAATAAAAAATAAAAAAATAAAAAAT [CACACA_negctrl_site1425]”, the “gcPBM binding intensity (ln)” value was 9.415 ± 0.021.

As for “TATATACACACCGTGTGTACATATACATTAACTGAA [XGTACX_site7120]”, the “gcPBM binding intensity (ln)” value came out at 11.2 ± 0.76. In the case of “GTTATATATGATGGAAGCACTTGGAAGAGGGAAATA [CACACA_negctrl_site1831]” it was 9.94 ± 0.15.

Regarding “GATAAATATTTAATATGTACATATATTATATATATA [XGTACX_site117]”, the “gcPBM binding intensity (ln)” value was found to be 11.2 ± 0.65. The value for “ATATATTATATATGCGCACACACGAATTTTTTTTTT [CACACA_site2393]” was 10.3 ± 0.12; that for “ATTAAAGTTATAAATTCACACATGTAAATGTATTTA [CACACA_site5279]” was 9.85 ± 0.11. The value for “TCGAAAATGACGAATGGTACAGTATGTATAAAAATA [XGTACX_site1258]” was 10.9 ± 0.53; that for “ACTTTTTTTTTGTGTGTGCACTCGATTATATACATA [GTGCAC_site9846]” was 10.7 ± 0.44; that for “TACACTAATGACAGTTGTACTTTTATTCGATAGAAT [XGTACX_site738]” was 11.4 ± 0.85. In the case of “TATATATATATAATATGTACATATATACATGCCTTG [XGTACX_site2791]” it was 11.1 ± 0.69; in that of “TATCTGTAAACATATTCACACACATAAATTCGCATA [CACACA_site8557]”, 10.03 ± 0.064. For “TATATATACATACGTACACACAAATATTAAAATATA [CACACA_site1951]”, the “gcPBM binding intensity (ln)” value turned out to be 11.5 ± 1.1. Take “TCAAAATTGCTTTGTTGTACTAATAAAATTTATTAC [XGTACX_site1121]”: the “gcPBM binding intensity (ln)” value is 11.2 ± 0.64. In the case of “ATGGCATAAATATATGCACACACAAAAAAAAAAAAA [CACACA_site7902]”, the “gcPBM binding intensity (ln)” value stood at 9.95 ± 0.35. For the sequence “AATATTATAAAATATTGTACTTAAAAAATTATTAAA [XGTACX_site2469]”, the “gcPBM binding intensity (ln)” value is 11.3 ± 0.82.

As to “TAAATTTTTTCTTTTTGTACATATTTTAAAAATGTT [XGTACX_site7526]”, the “gcPBM binding intensity (ln)” value came out at 11.1 ± 0.49. In the case of “TTTCTTTTTTTTTGAAGTACATAAAAATATAAAAAA [XGTACX_site311]” it was 11.6 ± 1.1. The value for “ATATATATATGTATGTATATATATATATATATGTTT [CACACA_negctrl_site248]” was 9.96 ± 0.6; that for “AAAAAGAAAAAGAGCACACAAAAATATTTAACCTTT [CACACA_site2747]” was 10.03 ± 0.014; that for “AAAACACAAAAAAAATGTACACATATATATATATAT [XGTACX_site8509]” was 11.3 ± 0.89. For “ATATTAATTCTACATTGTACACATGAAAAAATATAA [XGTACX_site8759]”, the “gcPBM binding intensity (ln)” value was 11.4 ± 0.96.

As to “TAACTATATTTTTACTGTACAAAAAAATTAAATAAT [XGTACX_site1765]”, the “gcPBM binding intensity (ln)” value came out at 11.1 ± 0.71.

For “GTTATATATAATAATTGTACAAAATTAAATATAACT [XGTACX_site4189]”, the “gcPBM binding intensity (ln)” value came out at 10.8 ± 0.49. Take “TTTTTATTTGGTTGTGTACACATATATATATATATA [CACACA_site5844]”: the “gcPBM binding intensity (ln)” value was 11.6 ± 0.94. Consider “AAAAAACACCCACATACACACAAAAATGTTATAAAT [CACACA_site81]”, for which the “gcPBM binding intensity (ln)” value is 10.2 ± 0.3. Regarding “CATTATGTCGTAAATACACACATACAGATACATACA [CACACA_site4880]”, the “gcPBM binding intensity (ln)” value was 10.3 ± 0.22. The value for “AAATTAAATAAATTTACACACTAAAAATTACAGATA [CACACA_site4722]” was 9.88 ± 0.028.

“CTAAGAAAAAATAAAGCACACAAATATTTTAAAAAC [CACACA_site9094]”: the “gcPBM binding intensity (ln)” value stood at 10.01 ± 0.014.

Take “TAAAGTAAAACAAGGTAAGGTTTTTCTTTTTCTTTT [CACACA_negctrl_site1271]”: the “gcPBM binding intensity (ln)” value came to 9.48 ± 0.18.

As for “AAAAAAAAATGTCATGGTACACAATTTTTTCTTTTT [XGTACX_site4505]”, the “gcPBM binding intensity (ln)” value was determined as 11 ± 0.56. The value for “AAACATAAGGGACACACACACATATATATATATATA [CACACA_site5920]” was 10.8 ± 0.61; that for “CAAAAAAACAAACACACACACACACCGATATATATA [CACACA_site9218]” was 9.94 ± 0.16.

“TGAAGTGCAAAATACTGTACGTAATGTGCTTGTTAC [XGTACX_site4512]”: the “gcPBM binding intensity (ln)” value is 11.5 ± 0.87.
